# Whole data set: some 33,000 sequences, median “E-score (-0.5 to 0.5)” near -0.053, cut for the highest 2% near 0.37. Some of the results follow.
# Molecular target: Hap1 (UniProt P0CE41)
# Test: PBM E-score (8-mer binding enrichment) (E-score (-0.5 to 0.5)); higher = stronger / more preferred TF binding; most listed sequences are background and not binding sites
# Details: protein concentration: 200 nM; construct: GST-DNA-binding domain
# Summary of the method: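 Each ungapped eight-base word and its reverse complement, pooled, received an E-score from the Universal PBM Analysis Suite. Underlying scans, normalised with masliner, recorded fluorescent anti-GST bound to GST-tagged yeast transcription factors. These were applied at about 100-200 nM to universal all-10-mer Agilent arrays double-stranded by primer extension.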
# Sequence of UniProt P0CE41 (P0CE41 whole entry): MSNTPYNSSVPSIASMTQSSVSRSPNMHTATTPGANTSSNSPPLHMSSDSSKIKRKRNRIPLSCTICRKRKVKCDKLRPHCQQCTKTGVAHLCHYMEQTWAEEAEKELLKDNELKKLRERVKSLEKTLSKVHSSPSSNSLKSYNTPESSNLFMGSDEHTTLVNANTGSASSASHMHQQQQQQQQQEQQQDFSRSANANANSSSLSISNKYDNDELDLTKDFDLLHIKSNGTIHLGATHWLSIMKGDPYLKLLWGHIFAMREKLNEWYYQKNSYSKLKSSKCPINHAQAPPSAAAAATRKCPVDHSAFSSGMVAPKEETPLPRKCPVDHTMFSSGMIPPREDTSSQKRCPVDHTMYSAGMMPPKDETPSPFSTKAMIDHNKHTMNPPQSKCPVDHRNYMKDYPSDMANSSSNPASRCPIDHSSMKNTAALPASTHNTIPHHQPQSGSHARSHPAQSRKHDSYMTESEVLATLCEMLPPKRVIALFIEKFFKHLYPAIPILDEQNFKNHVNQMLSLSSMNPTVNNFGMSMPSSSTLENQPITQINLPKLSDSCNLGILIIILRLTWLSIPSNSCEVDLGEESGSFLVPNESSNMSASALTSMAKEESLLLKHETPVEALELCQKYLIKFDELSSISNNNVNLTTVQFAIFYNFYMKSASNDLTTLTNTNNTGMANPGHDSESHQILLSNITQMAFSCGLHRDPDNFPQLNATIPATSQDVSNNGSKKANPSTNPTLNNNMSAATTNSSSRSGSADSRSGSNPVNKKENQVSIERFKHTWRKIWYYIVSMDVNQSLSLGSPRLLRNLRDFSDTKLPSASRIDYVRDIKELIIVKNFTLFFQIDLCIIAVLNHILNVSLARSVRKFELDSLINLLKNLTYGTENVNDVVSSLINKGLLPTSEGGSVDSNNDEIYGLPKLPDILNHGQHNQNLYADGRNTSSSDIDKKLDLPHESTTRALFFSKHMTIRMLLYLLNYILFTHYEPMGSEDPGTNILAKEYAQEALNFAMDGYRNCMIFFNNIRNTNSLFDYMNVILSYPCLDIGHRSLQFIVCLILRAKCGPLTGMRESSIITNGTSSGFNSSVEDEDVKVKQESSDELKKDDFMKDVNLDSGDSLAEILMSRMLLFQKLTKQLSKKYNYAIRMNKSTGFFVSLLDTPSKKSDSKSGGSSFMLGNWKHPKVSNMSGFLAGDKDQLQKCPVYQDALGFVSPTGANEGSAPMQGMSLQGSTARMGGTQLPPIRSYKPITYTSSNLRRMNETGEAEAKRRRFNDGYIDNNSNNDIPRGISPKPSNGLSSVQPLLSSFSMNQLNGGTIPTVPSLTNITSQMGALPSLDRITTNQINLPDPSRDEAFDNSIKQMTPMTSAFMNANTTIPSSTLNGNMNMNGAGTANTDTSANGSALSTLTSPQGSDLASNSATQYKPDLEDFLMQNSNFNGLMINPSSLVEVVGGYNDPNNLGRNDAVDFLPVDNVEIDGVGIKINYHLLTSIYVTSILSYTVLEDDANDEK
row,Sequence,PBM E-score
1,CATCTCGG,0.344
2,ATATGACG,0.0575
3,ACCACAGA,-0.112
4,AAATCGTC,0.0943
5,AGAGCCAG,-0.363
6,ACGACAAC,0.00097
7,ATGTGAAC,-0.117
8,AGCGCTTA,0.136
9,TAAATTAA,0.0905
10,ATTGCACC,-0.0142
11,CCTTGATA,-0.214
12,ATATTAAT,0.102
13,ATCTAGCA,-0.136
14,GGCGCTTA,0.119
15,ATATCTGC,0.105
16,ACGTCCCT,-0.295
17,ACGATAAA,0.0913
18,AGAGGCTG,-0.301
19,AAAGTAGG,-0.00922
20,GTTGACTA,-0.0897
21,ACATGTAA,-0.0805
22,AACTCTCT,-0.133
23,GCCTTGGA,-0.181
24,ACTGCCCG,0.0132
25,CTCAAACA,-0.0418

row,Sequence,PBM E-score
1,TAGGCCCA,-0.229
2,ACCACATC,-0.00509
3,ATGTTGAG,-0.113
4,AACTTTGG,-0.171
5,GCAATTCC,0.127
6,AACAGGTG,-0.158
7,GGGGTACA,0.163
8,ACAATACC,0.0279
9,CCTCAGAC,-0.00317
10,CCAAATCG,0.00406
11,GCACCCCC,-0.0617
12,ACCGGGTG,0.327
13,ACCTGACG,-0.229
14,ACCGTGAT,0.0661
15,GGGGAACC,-0.144
16,TGGTCACA,-0.0913
17,CTGACCAA,-0.132
18,AGCAACCT,-0.157
19,AGCAGTAC,-0.2
20,ACCACGTC,-0.116
21,CTCTCGTA,-0.0664
22,AGCCCCGC,0.104
23,AAGTGGCA,-0.233
24,GATGCCCC,-0.0948
25,CTGCCTCA,-0.224

row,Sequence,PBM E-score
1,GATTAGCA,-0.057
2,ATTGACCA,-0.0524
3,TCGCAACA,-0.2
4,CGCTAATA,0.247
5,GTTAAACA,-0.0588
6,GCAATGGA,-0.125
7,ACTACCGG,0.305
8,AAACAAGT,-0.125
9,CTGGGGCC,-0.0665
10,GATCACGA,-0.241
11,CGCGTAGC,0.0961
12,CCCTACGG,0.0542
13,GACACTAC,-0.0201
14,CTAGAATA,0.0393
15,ATACTCGC,0.134
16,GGGCTCAA,0.0323
17,CAGAGGTA,-0.18
18,GATGCCGC,0.0389
19,GGATCCAC,0.059
20,CGAGCTCG,0.129
21,GGCGTAGA,0.0367
22,CTAACACC,0.222
23,AATTCGCA,0.112
24,ACTAGCGA,0.105
25,AAACGGCA,0.0142

row,Sequence,PBM E-score
1,ATACATCA,-0.18
2,GTCTTCAA,-0.259
3,CCTTCAGC,-0.304
4,CCGCGGAG,0.352
5,CAGACATA,0.0368
6,GATCAGGC,-0.173
7,ATTGAGTG,-0.061
8,AGTCTAGA,-0.272
9,TCCAAGGA,0.0272
10,GATCGACA,-0.113
11,CCATTTGA,0.027
12,CGTGCTAA,-0.274
13,AATCTTGT,0.136
14,GTCGCAGA,0.0404
15,ACCCTCCC,0.181
16,TACTCCAA,-0.22
17,AACGAAGG,-0.308
18,TCTTCGCA,0.0202
19,CTTCAGTC,-0.193
20,ACGTCAAC,-0.105
21,ACAGCTCC,0.0968
22,GATGTTCC,0.13
23,TACAATCA,-0.0187
24,AAATGTAG,-0.107
25,ATTCGTAC,0.00708

row,Sequence,PBM E-score
1,AAGAGATA,-0.23
2,ATCGCAAA,0.0318
3,GAGCACTA,-0.132
4,AAGATGGA,-0.114
5,GCTGCCCA,-0.108
6,AGCGTTGG,-0.274
7,GCTAATCA,0.00778
8,GCGCTGGA,0.111
9,TATTGCCA,-0.057
10,CGAAGTCA,0.0132
11,ATTCGCTC,0.0145
12,CCCGCGAA,0.078
13,ATCGTAAG,-0.0613
14,ACTGCCGC,0.112
15,AGTAAAAC,-0.0962
16,CGTGCATC,-0.0421
17,GAAGATCC,0.127
18,CAGCTAGA,-0.264
19,AACGTTTG,-0.112
20,CATAGAAC,0.0727
21,AGATAACA,-0.0493
22,GTGCTCTA,-0.115
23,ATGCAGAC,-0.285
24,TCAGGCAA,-0.197
25,CCCATGAA,-0.244

row,Sequence,PBM E-score
1,CTTCCAAA,-0.316
2,CGGAGCTC,0.313
3,AACAAATG,-0.0316
4,CCTTTTAC,-0.0625
5,ACTTAGAT,-0.0138
6,GGACATAC,0.349
7,CAATGCTA,-0.105
8,CGTTTGCA,-0.124
9,CCGCTCGC,0.199
10,CAAGGAAC,0.0861
11,AGGCCAAA,0.0141
12,CTGTCGAA,-0.268
13,AGTGATAA,-0.168
14,AAGATTCG,0.0952
15,GCTTAAGA,0.0415
16,AAAGCAAG,0.139
17,AGCTAACG,-0.023
18,AAGCGCTG,0.105
19,CTCAAGGA,-0.0192
20,TCAGCCGA,0.329
21,ACCCATAG,-0.264
22,AAGACCTC,-0.211
23,GCAGGACA,0.00272
24,CCTCGCTA,-0.149
25,CTGTTACA,-0.145

row,Sequence,PBM E-score
1,ATATAAGA,0.0615
2,ACCCGTTA,0.318
3,AAATAAGA,0.0739
4,ATAAAACA,-0.0261
5,ACCTCGTA,-0.0139
6,CGCCACAC,-0.0353
7,CCATAGCA,-0.192
8,AACCCGGC,0.333
9,AGTCGGGA,0.171
10,GACTGCGC,-0.075
11,TAGGGGCA,-0.204
12,CGGATGAA,0.346
13,CTTTAAAC,-0.18
14,GCTCTTCA,-0.126
15,CATACTCA,-0.102
16,AAGTCTGG,-0.331
17,ATCATATG,-0.0707
18,CAGCAGCA,-0.256
19,AGTCTGCA,-0.108
20,GATAACGA,-0.00119
21,GACTCGCA,-0.0589
22,ATGTAGAG,-0.227
23,ATCCATCG,-0.0149
24,CCCTCTAG,-0.211
25,CACAATGA,-0.237

row,Sequence,PBM E-score
1,CAAAATTG,-0.191
2,CCCTCTGC,-0.329
3,CCGATACA,0.43
4,CTCAAACC,-0.00282
5,AATGGCGG,0.205
6,ATGCTGCG,-0.111
7,CACAGTAG,-0.236
8,CCATCTTA,-0.0246
9,CGAGGGAG,-0.0047
10,ACTAGTTG,-0.221
11,GTACAGAC,-0.132
12,AATCGGTC,0.295
13,ACTAAGTA,-0.0777
14,AAGGGCGC,0.0613
15,CCGGCCAC,0.315
16,AGGTATGC,0.0142
17,CATCTACC,-0.0272
18,ATAGTGCG,-0.00342
19,AACACGGA,0.283
20,CGGACTTA,0.488
21,GACAGGTC,-0.128
22,GCAGGCGA,-0.197
23,CAGCGTTA,-0.124
24,TAAATAAA,-0.085
25,GGCTGACC,-0.0824

row,Sequence,PBM E-score
1,ATAGGCGA,0.0101
2,GATAACCA,0.0257
3,CGGTCTAC,0.213
4,AACAATCG,0.0305
5,CGTTAGTA,-0.0714
6,CGACGAGC,-0.14
7,ACTGGGGC,-0.159
8,CCTTAAGC,-0.0205
9,TCGGAGAA,0.405
10,TCGAGCAA,-0.0728
11,AGGACATG,-0.181
12,GGCACGCA,0.0214
13,CCCCTAGC,-0.21
14,ACAGTAAC,-0.179
15,ACGCGGGG,0.293
16,CACTGCTA,-0.22
17,AACTAGTG,-0.0758
18,CGTCCGAG,0.401
19,CAATCCTA,-0.0593
20,AGTCGGGG,0.246
21,AGACCTAG,-0.15
22,CTCTGCGA,-0.2
23,AAATACGT,-0.134
24,CTCGTTAC,-0.292
25,TATGTCGA,-0.0806

row,Sequence,PBM E-score
1,AAGGCTCC,-0.112
2,CCGACCCC,0.0403
3,CTTGTCTA,-0.0104
4,AACGAACG,0.0701
5,CTATCACC,0.195
6,AGATCCCA,-0.0155
7,AGACGCTC,-0.161
8,CTTCTTGA,-0.144
9,CTTTACAA,-0.00459
10,ACCAGAGA,-0.184
11,GCACTAAA,0.045
12,GGCGAATA,0.225
13,GTTAACGA,-0.105
14,CAGCTGGA,-0.141
15,ACTGGACG,0.00727
16,AGATTGTC,0.0974
17,GGAGTCAA,0.0955
18,CTATTTGA,-0.0067
19,TAATGTCA,-0.0749
20,GAAGATAC,0.0677
21,CCCACCCA,0.0398
22,AACTAGGA,-0.0167
23,AACTATGG,-0.0562
24,GCTAGGCC,-0.0489
25,AGTATTAT,-0.423

row,Sequence,PBM E-score
1,AGAACTTC,-0.108
2,CAAAAATG,0.00202
3,CCTGACGC,-0.182
4,AAAGGTTG,-0.0906
5,AGGACAGG,-0.22
6,CAGGAGCA,-0.089
7,CATCGTCC,0.18
8,GCGGCCGA,0.335
9,AAGACTGC,-0.176
10,AGCGACTG,-0.306
11,TAAATAGA,-0.0909
12,ACACAGCA,-0.137
13,AAGTTTAG,-0.0281
14,CACCGCGC,0.0964
15,AGGGTTTG,-0.00012
16,ATCACACG,-0.0143
17,CGGTTTGA,0.0859
18,ATTCTGAA,-0.0357
19,ACTTAGGG,-0.0912
20,AAAGATTG,-0.173
21,CGGTTTGC,0.196
22,CTGAATCC,-0.0461
23,GGGCGGCA,0.268
24,AGGAATCG,0.0601
25,CCGAGCGG,0.395

row,Sequence,PBM E-score
1,AGCCTCAG,-0.177
2,GTCATTTA,-0.216
3,CATGGTGC,-0.139
4,AGGCGATC,-0.243
5,AAGATCCC,-0.0129
6,ACCGCGAT,0.163
7,CGTGGTGC,-0.0732
8,ATTGGTGA,-0.281
9,GGATGAGA,-0.148
10,GAGTTCAA,-0.182
11,CCACATGC,-0.0285
12,ATTACACA,-0.12
13,AGAGTCCT,-0.181
14,GATCCTGC,0.0253
15,CCCGAAGC,0.332
16,TACTGCCA,-0.135
17,CACTTATG,0.0486
18,GACCCAGA,-0.028
19,ATTAAAAC,0.111
20,GCGCCAAC,-0.0255
21,CGCGGGAG,0.0987
22,TCTTCTCA,-0.0532
23,ACCAGAGT,-0.222
24,CAGGAGCC,-0.0755
25,AGTGCGCA,0.0803

row,Sequence,PBM E-score
1,ACTACGAT,-0.109
2,ATGCGCCG,0.226
3,AGGTTGGC,0.00268
4,GTGGCACA,-0.261
5,AGTGTACC,-0.274
6,CCGATGAA,0.279
7,TAGCCCGA,0.255
8,CTGGTTCC,0.123
9,GCCGGCGC,0.366
10,CTTTTTTC,0.0157
11,ATCACGAC,-0.206
12,GCACTTGA,-0.172
13,CGTATCAA,-0.13
14,CTGATCAG,-0.0613
15,AACAATAG,-0.145
16,AGATTCTC,-0.0388
17,ATGCGCTC,-0.11
18,ACACCTTA,-0.117
19,TGATTCCA,-0.249
20,ACATAAGA,-0.108
21,ATTGTCGA,-0.0466
22,AATGCAGG,-0.175
23,CACATGTC,-0.172
24,AACAGACA,0.0176
25,AGATGCAA,-0.345

row,Sequence,PBM E-score
1,AACAGCAG,-0.0345
2,CAATTCCG,0.359
3,GACAGACC,0.0217
4,GTCCGCAA,0.305
5,ATGGCAGG,0.058
6,GCCTTTCA,-0.00638
7,GGAGTCAC,-0.109
8,AGACAAGG,-0.0749
9,ATGGGCGA,-0.0906
10,ACTATGAA,-0.205
11,CGCAGCTC,-0.132
12,GCGTCTAA,-0.0983
13,AAATACTC,-0.00865
14,CGAGAGGC,-0.00905
15,ACCTACCA,-0.228
16,AGGTCGCG,0.0123
17,CGCTAGAA,-0.0792
18,ATGGCGGG,0.246
19,CGGCAGCA,0.0762

# — the supplement of paper PMC3334620
